Measured values from the RNAGym collection of RNA variant scans (doi:10.7554/elife.90254).
The source gives no read counts; variants with many changes may rest on few reads.

B1: LINE1-mini (parent)
chain: GGCAGAGCUCAACACAGCGUGGCAAAGUGGCUGUGGCUAGACUGCC

Variants of: B1
Experiment: self-cleavage, relative activity (ratio to wild type); higher = more cleavage; in vitro, sequencing; the parent is a self-cleaving ribozyme

Variant | self-cleavage
GGCAGAGCUCAACACAGCGUGGCAAAGUGGCUCUUGCUAGAUUGCC | 0.03
GGCACAGCUAAACACAGCUUGGCAAAGUGGCUGUGGCUAGACUGCC | 0.03
GGCAGAGCUCAACCCAGCGUUGCAAAGUGGCUGUGGCUAGACUUCC | 0.02
GGCAGAGUUCAACACAGCGUGGCAAAGUGGCUUUGGCUAUACUGCC | 0.09
GGCAGGGAUCAACACAGCGUCGCUAAGUGGCUGUGGUUAGACUGCC | 0.03
GGCAGAGAUGGACACAGCGUGGCAAAGUGGCUGUGGCUAGACUGCA | 0.02
GGCAGGGCUCAACACAGCGUGGCAACGUGGCUGUGGAUAGACUGCC | 0.01
GGCAGAGCACAACACAGCGUGGCAAAGUGGUUGUGGCUAGAUUGCC | 0.01
GGCAGAGCUCAACACAGCCUAGCAAAGUGGAUGUGGCUAGACUGCC | 0.69
CGCAGAGCUCAACACAGCUUGGCAUAGUGGCUGUGGCUAGUCUGCC | 0.02
GGCAGAGAUCAACACAGCGUGGCUAAGUGGCUGUGGCUAGGCUGCC | 0.26
GACAGAGCUCAACACAGCGGCGCAAAGUGGCUGUAGCUAGUCUGCC | 0.03
GACAGAGCUGAACACAGCGUGGCAAAGUGUCUGAGGCUAGACUGCC | 0.02
GGCAGAGCUAAACACAGCGUGGCAAGGUGGCUGUGGCUAGACUGCG | 0.03
GGCAGAGCUCAACACAGCGUGGGAAAGUGGCUGUGUAUAGUCUGCC | 0.11
GGGAGAGCUCAAAACAGCGUGGCUAAGUGGCUGUGGGUAGACUACC | 0.02
GGCAGAACUCAACACAGCGUCACAAAGUGGCUGUGGCUAGACUGCC | 0.04
UGCAGAGCUCAACACAGCGUGGCAAAGUGGCUGUGGCUCGCCUGCC | 0.04
GGCAGAGCUCAACACAGCGCGGAAAAGUGUCUGUGGCUUGACUGCC | 0.05

Variant | self-cleavage
GGCAAAGCUCAACACAGCGUGCUAAAGUGGCUGUGGCCAGACUGCC | 0.09
GGCAGCGCUCAACACAGCGUGGCUAAGCGGCUGCCGCUAGACUGCC | 0.01
GGAAGAGCUCAACACAGCGUGGCCACGUGGCUGUGGCUGGACUGCC | 0.23
GGUAGAGUUCAACACAUCGUGGCGAAGUGGCUGUGGCUAGACUGCU | 0.01
UGCAGAGCUCAACACAGCGUGGCAAAGUGACUGUGGCUAGAGUGCC | 0.04
GACUGAGCUCAACACAGCGUGGCAAAGUUGCUGUGGCUAGUCUGGC | 0.07
GACAUAGCUAAACACAGCGUGGCAAAGUGGCUGUGGCUAGACUGCA | 0.03
GGCAGAGCUCAAUACAGCGUGGCAUAGUGGCUGUGGCUGGACUGCC | 0.48
AGCAGAGCUCAACACAGCGUGGCAAAGUGUCUGUGGCUACAAUGCG | 0.04
GGCGGAGCUCAACACAGCGUGGUAAAGUGGCUGUGACUAUACUGCC | 0.8
GGCAGAGCUCAACACAGCGUGGCAAAGUGGCGGUGGUUAGACUGUC | 0
GGCAGAGCUCAACAGAGCGGGGCGAAGUGGGUGUGGCUAGACUGCC | 0.01
GGCAGAGCUCAACACAGCGUGGAAAAGUGGCUGUGGCUGGACUGCU | 0.17
GGCAGAGCUCAACACAGCGUGGCAAAGUGGAUGUUGCUGGACUGCC | 0.06
GGGAGAGCUGAACACAGCGUGGCAAAGUGGCUGAGGCUAGACUGCC | 0.03
GGUAGAGCUCAACACAGCGUGGCAAAGUGGCGGUGGCUAGACUACC | 0.34
GGCAGAGUUCAACACAGCUUGGCAAAGUGGCUGUUGAUAGACUGCC | 0.05
GGCAGAGCUCAACCUAGCGUGGAAAAGUGGCUGUGGCUCGACUGCG | 0.02
GGCAGAGCUCAACACAGCGUGGCACCGUGGCUGUGGCUAGACUCCC | 0.42

Variant | self-cleavage
GCUGGAGCUCGACACAGCGUGGCAAAGUGGCUGUGGCUAGACUGCC | 0.01
GGCAGUGCUCAACACAACGUGGCAAAGUGGCGGUGGCUAGACUGCC | 0.03
GGCAGGGCUCAACGCAGCGAGGCAAAGUGGCCGUGGCUUGACUGCC | 0.17
GGCAGUGCUCAACACAGCGUGGCAAAGUGACACUGGCUAGACUGCC | 0.03
GGCAGAGAGCAACACAGCGUGGGAAGGUGCCUGUGGCUAGACUGCC | 0.05
GGAAGAGCUCACCACAUCGAGGCGAAGUGGCUCUGGCUAGACUGCC | 0.02
GGCAGAGCUCUACACAGCAUCGCAAAGUGGCUGUGGCUAUACUGCC | 0.02
GGCAGAGCUCAGCAUAGCGUGGCUAAGUGGCUGUUGCUAGACUGCC | 0.04
GGCAGAGCUCAACACAGCGUUGCAAAGUGCCUGUGGCUAGACAGCC | 0.03
GGCAGAGGUCAACACAGCGUGGCAAAGUGGCUUUGGAUAGACUGCC | 0.07
GGCAUAGCUCACCACAGCGUGGCAAAGUGGGUGGGGCUAGCCUGCC | 0.02
AGCAGAGCUCAAGACAGCGUGGAAAAGUGUCUGUCGCUAGACUGCC | 0.29
GCCAGAGCUCAACACAGCUUGGCGAAGUGGCUGUCGCUAGAUUGCC | 0.01
GGCAGAGGUCAACACAGCGUGGCAAAGUGGCUGUGCCUAGACGGCC | 0
UGCAGAGCUCAAAACAGCGUGGCCAGGUGGCCGUGGCUAGACUGCC | 0.03
GGCUAAGCUUAACACAGCGUGUCAAAGUGGCUGCGGCUGGACUGCC | 0.05
GGCAGAGCUCAACACAGCAUGGCAAAGUGGCUGUGGCUCGACUACU | 0.08
GGCAGAGCUCAACACAGCGUGGGAAAGUGGUUGUGGCGAGACUGCC | 0
